For this series, the system named is CHL (Chinese Hamster Lung)/IU cells. As to the kind of experiment: Chromosome aberration assay. The note with it: 20 μg/mL, S9+, 6-18 hr, positive control.

Several values for one entry are separate records, joined by “and”; a condition that tells them apart may be missing. Equal entries are not always repeated.

`c1ccc2c(c1)cc1ccc3cccc4ccc2c1c34` [B[a]P, Benzo[a]pyrene]: the RPD was 41.3% and 57.4%.
